In PubChem BioAssay AID588855 (National Center for Advancing Translational Sciences (NCATS), 2011):
The campaign covered roughly 410,000 compounds. About 5,000 (1.2%) were called active. The shares of active, inactive and inconclusive entries below differ from those in the screen. The call rests on the fitted dose curve; in most records, active means well fitted inhibition curve with a large enough effect; inconclusive means small, poorly fitted or top-dose-only effect; inactive means no such curve, though single readings can be large or run the other way. Potencies beside an inconclusive call are fits to weak or partial responses and may not hold up.
Potency means the concentration at half of the fitted maximal effect; tags describe the fitted curve by direction and shape.

Assay: qHTS for Inhibitors of TGF-b; further: nearly all actives have a fitted effect of over 65% in size
Details: HepG2 CAGA-GFP TGF-b/SMAD3 reporter, GFP fluorescence, 18 h, TGF-beta stimulated, 500 pg/mL final; series mostly up to 46.1 µM
In short: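 TGF-beta reporter screen: HEPG2 CAGA-GFP, 1% FBS, 500 pg/mL TGF-beta final, 18 h; per-cell GFP summed per well; curves fitted and categorized by class.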
For `O=C1CCN(S(=O)(=O)c2ccccc2)CCN1CCOCc1ccc(C(F)(F)F)cc1`, the Potency was inconclusive: 12.6 µM [inhibitor, partial curve, poor fit].
With `Cc1ccc(C(=O)Nc2cccc(C(F)(F)F)c2)cc1Nc1cnccn1` the Potency was inconclusive: 14.1 µM [inhibitor, single point].
With `O=C(Nc1ccc2ccccc2c1)c1cn(-c2ccccc2)nc1-c1cccs1` the Potency was “inactive”.
In the case of `O=C(CCc1ccccc1)N1CCN(c2ccc(Cl)cc2)CC1`, the Potency was inconclusive: 12.6 µM [inhibitor, single point].
For `Cc1cc(C)c(S(=O)(=O)N(C)CC(=O)NCc2cccnc2)c(C)c1`, the Potency was inconclusive: 28.2 µM [inhibitor, single point].
With `O=C(N/N=C/C(Br)=C\c1ccccc1)c1n[nH]c2c1CCC2` the Potency was inconclusive: 3.16 µM [inhibitor, partial curve, poor fit].
In the case of `CCC(C(=O)NC1CCCCC1)n1nc(C)c2sc3ccccc3c2c1=O` (configuration not stated), the Potency was inconclusive: 3.98 µM [inhibitor, partial curve, poor fit].
With `O=C(Nc1ccccc1C(F)(F)F)C1CCN(c2nnc(-n3cccc3)s2)CC1` the Potency was inconclusive: 11.2 µM [inhibitor, partial curve, poor fit].
For `O=C(Cn1cc(SCc2ccc(F)cc2)c2ccccc21)N1CCCC1`, the Potency was inconclusive: 11.2 µM [inhibitor, partial curve, poor fit].
In the case of `CC(=O)Nc1ccc(/C=C/C(=O)c2ccc(-n3nncc3-c3ccccc3)cc2)cc1`, the Potency was inconclusive: 2.24 µM [inhibitor, full curve, poor fit].
With `COc1ccc(NC(=S)NCCSc2ccc(Cl)cc2)c(OC)c1` the Potency was inconclusive: 17.8 µM [inhibitor, single point].
In the case of `Cc1ccc(-n2c(=S)[nH]c3c(oc4ccccc43)c2=O)cc1C`, the Potency was “inactive”.
With `CCOC(=O)NC1c2ccccc2Oc2ccccc21` the Potency was inconclusive: 6.31 µM [inhibitor, single point].
For `CCOCCCNC(=O)c1cn(C)c2ccc(S(=O)(=O)N3CCCC3)cc2c1=O`, the Potency was inconclusive: 2.82 µM [inhibitor, single point].
With `COc1ccc(CNC(=O)C(c2ccc(C)o2)N(C(=O)c2csnn2)c2ccc(C(C)C)cc2)cc1` (configuration not stated) the Potency was inconclusive: 22.4 µM [inhibitor, single point].
With `CC(NC(=O)c1ccco1)C(=O)N1CCN(C(c2ccccc2)c2ccccc2)CC1` (configuration not stated) the Potency was inconclusive: 5.62 µM [inhibitor, single point].
With `CCCCn1c(C2CC(=O)N(c3ccc(OCC)cc3)C2)nc2ccccc21` (configuration not stated) the Potency was inconclusive: 25.1 µM [inhibitor, single point].
In the case of `O=C(NCCC1=CCCCC1)C1CCC(CNc2nc(=S)[nH]c3ccccc23)CC1` (configuration not stated), the Potency was inconclusive: 2.51 µM [inhibitor, partial curve].
For `Cc1ccc(NC(=O)c2sc(Cl)nc2-c2ccccc2)cc1C`, the Potency was “inactive”.
In the case of `Cc1ccc(-c2cnc(SCC(=O)N3CCCc4ccccc43)n2C)cc1`, the Potency was inconclusive: 20 µM [inhibitor, partial curve, poor fit].
For `CN1CCN(C(=S)Nc2ccccc2Cl)CC1`, the Potency was “inactive”.
With `O=c1[nH]c(=O)c2cc([N+](=O)[O-])cc([N+](=O)[O-])c2[nH]1` the Potency was “inactive”.
For `O=C(NC1CCCC1)c1ccc2c(c1)S(=O)(=O)c1ccccc1C2=O`, the Potency was inconclusive: 35.5 µM [inhibitor, partial curve, poor fit].
For `CC1(C)CC(=O)C=C(c2ccccc2-c2ccc(S(C)(=O)=O)cc2)C1=O`, the Potency was “inactive”.
For `CCOc1ccc(OCC)c(NS(=O)(=O)c2ccc3c(c2)CCCN3C(C)=O)c1`, the Potency was inconclusive: 14.1 µM [inhibitor, single point].
In the case of `Cc1ccc(/C=C/C(=O)N2CC(C)CC(C)C2)o1` (configuration not stated), the Potency was inconclusive: 5.62 µM [inhibitor, full curve, poor fit].
With `O=C(COc1ccc(Cl)cc1)N(Cc1ccco1)c1ccccn1` the Potency was inconclusive: 6.31 µM [inhibitor, single point].
With `O=c1c2ccccc2oc2cc(-c3ccc(CN4CCOCC4)cc3)ccc12` the Potency was inconclusive: 22.4 µM [inhibitor, partial curve, poor fit].
With `CCOc1ccc(C(C)=O)cc1CSc1nnc(-c2cccs2)n1CC1CCCO1` (configuration not stated) the Potency was “inactive”.
With `COc1ccc(C2=CC(=O)C[C@H](COCc3ccccc3)N(C(=O)OC(C)(C)C)O2)cc1` the Potency was inconclusive: 35.5 µM [inhibitor, single point].
With `CC[C@@]1(c2ccccc2OC)C(=O)N(C(=O)OC)N1C(=O)OC` the Potency was inconclusive: 35.5 µM [inhibitor, partial curve, poor fit].
For `Cc1cc(C)c(NS(=O)(=O)c2ccc3c(c2)NC(=O)CCS3)c(C)c1`, the Potency was “inactive”.
In the case of `O=C(c1ccc(-c2ccccc2)cc1)N1CCN(c2nc3ccccc3o2)CC1`, the Potency was “inactive”.
With `O=C(Cn1c(-c2cccs2)cc2ccccc21)NCCCN1CCN(c2ccc(F)cc2)CC1` the Potency was inconclusive: 12.6 µM [inhibitor, single point].
For `Cc1cc(SCC(=O)OC/C(O)=C(\C#N)c2nc3ccccc3[nH]2)c(C)cc1Br`, the Potency was “inactive”.
With `O=C(C=Cc1ccco1)c1cc(Cl)ccc1O` the Potency was inconclusive: 35.5 µM [inhibitor, single point].
For `CCN(c1ccccc1)S(=O)(=O)c1cc(C(=O)Nc2cccc(Cl)c2)ccc1F`, the Potency was active: 10 µM.
In the case of `O=C(NCc1ccccc1)c1cc(C2CCCCN2C(=O)CCc2ccccc2)on1` (configuration not stated), the Potency was “inactive”.
For `Cc1cc2nc(-c3ccco3)c(CC(C)(C)C)n2c(C)c1Br`, the Potency was inconclusive: 10 µM [inhibitor, partial curve, poor fit].
For `O=C(NC1CCCC1)c1ccc(CSc2nc3cccnc3n2Cc2ccccc2F)cc1`, the Potency was inconclusive: 15.8 µM [inhibitor, single point].
For `OCC1(Cc2ccc(F)cc2F)CCCN(Cc2ccc(Cl)cc2)C1` (configuration not stated), the Potency was inconclusive: 35.5 µM [inhibitor, single point].
For `Cc1cc(C)nc(SCc2ccc(C(=O)NNC(=O)Nc3cccc(Cl)c3)cc2)n1`, the Potency was inconclusive: 22.4 µM [inhibitor, single point].
